In the supplement of paper PMC8047034:
Counter-ions that a name gives are not always drawn. The list shows a part of the results. Single values are uncertain, as repeats are few or missing.

system: OVCAR4; assay: log2 surviving fraction (library drug vs vehicle, or drug + carboplatin vs carboplatin alone; relative to plate median); ovarian cancer lines: OVCAR4 is platinum-sensitive and Ov4Carbo platinum-resistant; higher = more cell survival; conditions: library drug concentration 10 µM; 7 days; carboplatin co-treatment 5 µM

Compound	log2 surviving fraction
O=S(=O)(O)Oc1ccc(C(c2ccc(OS(=O)(=O)O)cc2)c2ccccn2)cc1 [Sodium Picosulfate]	0.576
C[C@]12CC[C@@H]3c4ccc(O)cc4CC[C@H]3[C@@H]1CC[C@@H]2O [Estradiol]	-0.0409
CC(=O)[C@@]1(O)CC[C@H]2[C@@H]3CCC4=CC(=O)CCC4=C3[C@@H](c3ccc(N(C)C)cc3)C[C@@]21C [Ulipristal]	-1.06
O=C(NCCO[N+](=O)[O-])c1cccnc1 [Nicorandil (Ikorel)]	-0.117
O=C(Nc1ccc([N+](=O)[O-])cc1Cl)c1cc(Cl)ccc1O [Niclosamide (Niclocide)]	-7.46
CC(C)/N=c1\cc2n(-c3ccc(Cl)cc3)c3ccccc3nc-2cc1Nc1ccc(Cl)cc1 [Clofazimine]	-1.63
CC(C)c1nc(CN(C)C(=O)N[C@@H](CCN2CCOCC2)C(=O)N[C@H](CC[C@H](Cc2ccccc2)NC(=O)OCc2cncs2)Cc2ccccc2)cs1 [Cobicistat (GS-9350)]	-1.9
Clc1ccc(COC(Cn2ccnc2)c2ccc(Cl)cc2Cl)c(Cl)c1 (configuration not stated) [Miconazole nitrate]	-2.34
COC(=O)CCc1ccc(OCC(O)CNC(C)C)cc1 (configuration not stated) [Esmolol HCl]	0.019
CCOC(=O)c1cncn1[C@H](C)c1ccccc1 [Etomidate]	0.899
CC[C@H](C)C(=O)O[C@H]1C[C@@H](C)C=C2C=C[C@H](C)[C@H](CC[C@@H]3C[C@@H](O)CC(=O)O3)[C@H]21 [Lovastatin (Mevacor)]	-3.03
N#CC1(c2ccc(NC(=O)c3cccnc3NCc3ccncc3)cc2)CCCC1 [Apatinib (YN968D1)]	-2.33
